125 molecules from publication PMC9574860, “Chemical Toolkit for PARK7: Potent, Selective, and High-Throughput” (Journal of Medicinal Chemistry, 2022) can be followed below.

Each structure is given as a SMILES string. Hit rate of the full screen: of about 7,900 compounds, about 400 (5.1%) showed an effect of 50% or more. The list shows a part of the results.

The assay deals with Parkinson's disease protein 7 (PARK7/DJ1) (human, UniProt Q99497). The experiment in a line: primary screen, percent inhibition; read as competition with a fluorescent probe by fluorescence polarization; higher = more effect of the substance. The following applies: 100 µM. In short, it runs like this: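 Covalent fragments at 100 μM final were incubated 2 h with 0.2 μM PARK7, then 20 nM probe JYQ-107 added for a further 2 h. Fluorescence polarization read at 480/520 nm; relative FP loss versus reference controls gave remaining enzyme activity.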
Chain of Parkinson's disease protein 7 (PARK7/DJ1) (Q99497 whole entry, looked up, the tested form may be a part): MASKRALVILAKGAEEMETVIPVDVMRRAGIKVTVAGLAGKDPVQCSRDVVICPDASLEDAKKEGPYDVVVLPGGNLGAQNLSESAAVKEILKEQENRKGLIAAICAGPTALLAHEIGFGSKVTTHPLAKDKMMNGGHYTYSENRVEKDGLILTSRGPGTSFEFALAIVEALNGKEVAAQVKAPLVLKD
For the molecule `CC(C)NC(=O)C(C#N)=Cc1ccc(F)cc1`, the Inhibition % is reported as 8.01%.
Then `C=CC(=O)NCc1cnn2ccccc12`, with 19.8%; and `Cl.ClCC1CCCCCN1` (centres unmarked), with 0.798%; and `CC(=O)NC(C)c1ccc(C(=O)CCl)cc1` (centres unmarked), with 38.2%.
Then `O=C(CCc1ccc(S(=O)(=O)F)cc1)N1CCCCC1`, with 12.4%; and `O=C(CCl)NC1CCOCC1`, with 10.5%.
Turning to `C=CC(=O)NC[C@H]1CC(c2nnc(C)[nH]2)C[C@H]1O` (some centres unmarked), the Inhibition % is 16.8%.
The same measure for `Clc1ccc2c(c1)C1OC1C2` (centres unmarked): 10.7%; for `COc1nc(C#N)sc1C`: 2.94%.
Then `Cl.O=C(CCl)N1CCN(CC(=O)N2CCCC2)CC1`, with 2.27%.
Then `CN(C(=O)Cn1cnc(C#N)n1)C1CCCCC1`, with 6.19%.
For `CC1(C)OB(c2ccc(OCC(F)F)cc2F)OC1(C)C`, the Inhibition % was 2.02%.
Then `COc1ccc(S(=O)(=O)F)cc1O`, with 54%; and `CC(NC(=O)CCl)C(c1ccccc1)N1CCOCC1.Cl` (centres unmarked), with 10.7%.
Then `C=CC(=O)N(C)C1CCCc2c1cnn2C` (centres unmarked), with 11%.
Then `Cc1ccc(OC2CCCC2)c(B(O)O)c1`, with 2.59%; and `C=CC(=O)NCCc1cn2c(n1)SCC2`, with 13.4%; and `CCc1ccc(S(=O)(=O)n2cc(C)nc2CC)cc1`, with 6.17%.
Turning to `O=C(CCl)Nc1cccc(C(=O)N2CCSCC2)c1`, the Inhibition % is recorded as 6.3%.
The same measure for `C=CC(=O)Nc1ccccc1C`: 4.88%; for `COc1ccc2nc(C#N)ccc2c1`: 3.18%.
The same measure for `Cc1cccc(NC(=O)C(C#N)=Cc2ccco2)c1`: 15.3%; for `COc1cc(OC)c(OC)cc1CS`: 63.9%.
Then `COc1ccc2ccccc2c1C=C(C#N)C(N)=O`, with 13.5%; and `Cc1ccc(C=CS(=O)(=O)Nc2ccnn2C(C)C)cc1`, with 13%.
Take `C#CC(=O)CCc1ccccc1`: the Inhibition % was 14.6%.
The same measure for `Cc1ccc(N(C(=O)CCl)C2C=CS(=O)(=O)C2)cc1C` (centres unmarked): 5.05%.
Then `COc1ccc(NC(=O)c2ccccc2NC(=O)CCl)cc1`, with 2.88%; and `CCC1c2ccsc2CCN1C(=O)CCl` (centres unmarked), with 14.7%; and `CN(C)CCn1c(S)nc2ccsc2c1=O`, with 4.97%.
Turning to `C=CC(=O)Nc1cc(-c2ccnn2C)ccc1C`, the Inhibition % turned out to be 6.59%.
Regarding `CC(CCO)NC(=O)c1cccnc1S` (centres unmarked), the Inhibition % came out at 9.53%.
Then `Cc1ccc(C(=O)N2CCCCC2C2OCCO2)cc1F` (centres unmarked), with 7.53%; and `CC(C)c1nn(C)c(Cl)c1C=C(C#N)C(=O)O`, with 15%.
The same measure for `C=CC(=O)N1CCN(C(=O)C2CC2)CC1(C)C`: 7.47%.
On to `O=S(=O)(F)c1ccc(-c2cn([C@@H]3CC[C@H]3O)nn2)cc1` (racemic), for which the Inhibition % is given as 34.3%.
The same measure for `C=CC(=O)NC1CC2(CC2)C1`: 7.25%; for `CCN(c1ccc(NC(=O)CCl)cc1)C(C)C.Cl`: 98.6%; for `Cc1ccn(S(=O)(=O)c2cc(C)c(C)cc2C)n1`: 12%.
In the case of `CC1OB(O)c2cc(CO)c(F)cc21` (centres unmarked), the Inhibition % is listed as 1.93%.
Then `N#CC(=Cc1ccc(Cl)cc1Cl)C(N)=O`, with 3.78%.
The same measure for `C=CC(=O)N1CC2CCCC2C1C(N)=O` (centres unmarked): 2.15%; for `NC(=O)Cc1cc(=O)[nH]c(S)n1`: 52.6%; for `CC(Nc1ccc(C#N)nc1)C(O)c1ccc(F)cc1` (centres unmarked): 6.52%.
The same measure for `Cl.Cn1ncc2ncc(B3OC(C)(C)C(C)(C)O3)cc21`: 29.1%.
Consider `CC1CC(Sc2nccc(C(F)(F)F)n2)C(=O)O1` (centres unmarked), for which the Inhibition % is 3.32%.
As for `C=CC(=O)N1CCOC(COc2ccc(F)c(F)c2)C1` (centres unmarked), the Inhibition % stood at 1.27%.
As to `CS(=O)(=O)OC1CCOC2(CCOCC2)C1` (centres unmarked), the Inhibition % was 9.05%.
The same measure for `Cc1ccc(S(=O)(=O)OC2C=CS(=O)(=O)C2)cc1` (centres unmarked): 4.24%; for `N#Cc1nc(-c2ccc(Cl)cc2Cl)oc1N`: -2.51%.
As for `C#CCNC(=O)CNc1ccc(Cl)c(C#N)n1`, the Inhibition % is reported as 2.84%.
The same measure for `C=CC(=O)NC(C)CN1CCCC(C)C1` (centres unmarked): 2.15%; for `O=C(Cn1c(-c2ccccc2)noc1=O)N1CCCC1`: 0.898%.
`C=CC(=O)N1CC(C)(C)C1c1nccn1CC1CC1` (centres unmarked): the Inhibition % was 13.4%.
The same measure for `C=CC(=O)N1CCOC(CCF)C1` (centres unmarked): 7.61%.
Then `Cc1nccn1S(=O)(=O)c1ccc(C(C)(C)C)cc1`, with 0.878%.
`O=C1SCCN1CC(=O)N1CCOc2ccccc21`: the Inhibition % was 2.45%.
`COCOc1ccc(C#N)cc1B1OC(C)(C)C(C)(C)O1`: the Inhibition % is on record as 4.19%.
The same measure for `OB(O)c1cccc(-c2cc[nH]n2)c1`: 3.3%; for `O=C(Nc1ccn(CC(F)(F)F)n1)c1cccnc1S`: 5.34%; for `N#Cc1ncccc1C(=O)O`: 8.09%.
Then `C=CC(=O)N1CCSc2c1c(C)nn2C`, with 19.9%.
Take `O=C(CCl)NC(c1ccccc1)c1nccs1` (centres unmarked): the Inhibition % came out at 18.1%.
Then `Cc1cc(=O)oc2cc(OCC3CO3)ccc12` (centres unmarked), with 7.44%; and `N#CN(Cc1nnc(C2CCC2)o1)c1ccc(F)c(Cl)c1`, with -0.412%; and `CCOc1ccc(C(=O)CCl)cc1`, with 84.9%.
Then `C=CC(=O)NC1C(C)C(OC)C12CCC2` (centres unmarked), with 50%.
Then `COc1ccc2nc(SC3CC(C)OC3=O)[nH]c2c1` (centres unmarked), with 6.64%; and `O=C(c1cccnc1S)N1CCC(n2cccn2)CC1`, with 14.1%.
As for `Cn1cnc2ccc(S(=O)(=O)F)cc21`, the Inhibition % is 43.4%.
Consider `Cl.O=C(CCl)NCC(c1ccccc1Cl)N1CCCC1` (centres unmarked), for which the Inhibition % is on record as 3.25%.
Then `Sc1ncnc2ncncc12`, with 6.65%; and `C#CCN1CCN(c2oc(-c3ccco3)nc2C#N)CC1`, with 53.7%; and `C=CC(=O)NCCc1cn(C)nn1`, with 10.4%.
Then `C1COCCN1.Cc1cc(=O)[nH]c(S)c1C#N`, with 8.07%.
Then `C=CC(=O)NCCc1nc(-c2ccc(F)cc2)c[nH]1`, with 6.03%; and `O=S(=O)(F)CCN1CCSc2ccccc21`, with 2.53%; and `CCOc1ccc(S(=O)(=O)n2nc(C)cc2C)c(C)c1C`, with 7.32%.
In the case of `COc1ccc(Cl)cc1NC(=O)CCl`, the Inhibition % is 14.9%.
Consider `CCN(Cc1ccc(OC)c(F)c1)C(=O)CCl`, for which the Inhibition % came out at 10%.
Turning to `C=CC(=O)Nc1cccc2c1COCC2`, the Inhibition % was -1.36%.
Then `N#Cc1ncn(CC(=O)c2ccc(F)cc2)n1`, with 3.22%.
For `CC1NC(=O)CCC1NC(=O)c1ccc(C#N)[nH]1` (centres unmarked), the Inhibition % was 7.12%.
As for `Cc1ccc(C=C(C#N)C(=O)NC(C)C)o1`, the Inhibition % amounted to 7.55%.
Then `CC(C)(C)OC(=O)n1cc(B2OC(C)(C)C(C)(C)O2)c2cnccc21`, with 7.25%; and `C=CC(=O)N1CCS(=O)(=O)c2ccccc2C1`, with 7.33%.
Then `COc1cccc(S(=O)(=O)CCCl)c1`, with 3.15%; and `O=S1(=O)C=C(C(F)(F)F)CCC1`, with 9.12%; and `C=CC(=O)N1CCCC1c1ccc(OC)c(F)c1` (centres unmarked), with 5.7%.
Then `CC1(C)OB(c2cccc3ncoc23)OC1(C)C`, with 31%; and `O=C1N(c2ccc3c(c2)OCO3)C(c2ccco2)C1(F)F` (centres unmarked), with 8.07%; and `Cc1cc(NC(=O)c2cccnc2S)c[nH]c1=O`, with 22.1%.
For the molecule `C=CC(=O)NCc1cccc(C(=O)NC(C)(C)C)c1`, the Inhibition % is recorded as 9.53%.
The same measure for `C=CC(=O)NC1CCc2sccc2NC1=O` (centres unmarked): 8.71%.
The same measure for `CC1CC(Sc2ccc(C(F)(F)F)cn2)C(=O)O1` (centres unmarked): 11.2%; for `COCc1ccccc1CNC(=O)CCl`: 10.3%.
The same measure for `CC1(C)OB(c2cccc3ccoc23)OC1(C)C`: 3.59%.
With `COc1nscc1B1OC(C)(C)C(C)(C)O1`, the Inhibition % turned out to be 20.8%.
Consider `O=C(CCl)NCc1ccc2c(c1)OCO2`, for which the Inhibition % amounted to 14%.
Then `COC1CCCCC1Nc1ccc(C#N)nc1` (centres unmarked), with 4.9%; and `O=c1onc(-c2cccnc2)n1C1C=CCCC1` (centres unmarked), with 54.8%; and `Cc1ccc(C2=NC(=Cc3cnn(C)c3)C(=O)O2)cc1`, with 10.1%.
Regarding `N#Cc1ccc(Cl)cc1N1CCC(C2OCCO2)CC1`, the Inhibition % is on record as 2.51%.
The same measure for `C=CC(=O)Nc1ccc(C2CC2)cc1`: -3.62%; for `c1ccc(SCC2CO2)cc1` (centres unmarked): 8.47%; for `Cc1coc(Sc2cnc(C#N)cn2)n1`: 8.33%.
The same measure for `O=S(=O)(F)c1ccccc1C(F)(F)F`: 11.3%; for `COc1cccc(N(C(C)=O)C2C=CS(=O)(=O)C2)c1` (centres unmarked): 7.7%; for `Cn1cc(C=CC(=O)N2CCCCCC2)c(=O)n(C)c1=O`: 6.55%.
As for `Cc1ccc(NC(=O)CCl)cc1Br`, the Inhibition % is listed as 75%.
As for `C=CC(=O)NC1(C2CC2)CCOCC1`, the Inhibition % is reported as 7.04%.
The same measure for `C=CC(=O)N1CCC2(C1)OCc1ccccc12` (centres unmarked): 9.73%.
As to `C=CC(=O)NC1CCN(c2cccc(Cl)c2)C1` (centres unmarked), the Inhibition % was found to be 2.26%.
The same measure for `CC(Nc1ccc(C#N)nc1)c1ccncc1` (centres unmarked): 8.24%.
The same measure for `CC1CCCCC1NC(=O)Cn1cnc(C#N)n1` (centres unmarked): 5.45%; for `O=C(NCC1CC1)Oc1ccccc1`: 10.1%.
Then `C=CC(=O)N(CC)C1CCOC(C)(C)C1` (centres unmarked), with 8.38%; and `COc1ccc(C=C(C#N)C(N)=O)c(Cl)c1OC`, with 3.63%.
Consider `O=c1c2ccccc2nc(S)n1C1CCOCC1`, for which the Inhibition % is given as 2.99%.
The same measure for `C=CC(=O)NCC1(OC)CCOC1` (centres unmarked): 1.62%.
The same measure for `N#Cc1nnc(-c2ccccc2)o1`: 4.85%.
The same measure for `C=CC(=O)NC1(CF)CCOCC1`: 4.75%; for `CC(c1ccc(F)cc1)N(C)C(=O)CCl` (centres unmarked): 96.3%.
Consider `CN(C)C(=O)CN1CCN(C(=O)CCl)CC1.Cl`, for which the Inhibition % was 13%.
In the case of `C=CC(=O)NCc1nnc(C(C)(C)C)s1`, the Inhibition % amounted to 10.4%.
